Hit rate of the full screen: of about 7,900 compounds, about 400 (5.1%) showed an effect of 50% or more. Some of the results follow.

Sequence of Parkinson's disease protein 7 (PARK7/DJ1) (Q99497 whole entry, looked up, the tested form may be a part): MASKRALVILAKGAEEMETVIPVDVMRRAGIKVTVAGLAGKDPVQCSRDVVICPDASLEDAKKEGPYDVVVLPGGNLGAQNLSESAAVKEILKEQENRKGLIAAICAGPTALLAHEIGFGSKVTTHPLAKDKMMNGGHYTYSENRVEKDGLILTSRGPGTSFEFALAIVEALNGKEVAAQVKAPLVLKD

This experiment deals with Parkinson's disease protein 7 (PARK7/DJ1) (human, UniProt Q99497). The experiment can be described thus: primary screen, percent inhibition; read as competition with a fluorescent probe by fluorescence polarization; higher = more effect of the substance. Conditions: 100 µM. In short, it runs like this:
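Covalent fragments at 100 μM final were incubated 2 h with 0.2 μM PARK7, then 20 nM probe JYQ-107 added for a further 2 h. Fluorescence polarization read at 480/520 nm; relative FP loss versus reference controls gave remaining enzyme activity.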
In the case of `O=C(CCl)N1N=C(c2ccco2)CC1c1cccs1` (stereo not shown), the Inhibition % was 12.6%.
The result for `N#CC(=Cc1ccc(C(=O)O)cc1)C(=O)N1CCCCC1` reads 8.05%; that for `C=CC(=O)NCC1CCCN(C)C1c1cccs1` (stereo not shown), 5.48%; that for `CCN(CC)C(=O)C(C#N)=Cc1ccc2c(c1)OCCO2`, 6.48%.
Under `CCN(Cc1cnn(C)c1)c1ccc(C#N)nc1` stands 16.4%; under `C=CC(=O)N1c2cc(OC)ccc2NC(=O)C1C` (stereo not shown), 9.84%.
The result for `O=C1NC(c2ccco2)C12CCCC2` (stereo not shown) reads 2.45%; that for `O=C(CCl)Nc1ccc(F)c(Cl)c1`, 21.3%; that for `Cc1cc(C)n(CCCNc2ccnc(C#N)c2)n1`, 3.45%.
With `CC(C)(C)c1nnc(NC(=O)CCl)s1`, the Inhibition % was determined as 24.2%.
The result for `C=CC(=O)NC1CC(OC)C12CCC2` (stereo not shown) reads 3.73%; that for `CC1(C)C(=O)NC1C1CCN(Cc2ncccc2Cl)CC1` (stereo not shown), 8.54%; that for `C=CC(=O)N(C)CC1=CCSC1`, 14.9%.
The result for `C=CC(=O)NCC1(c2ccccn2)CCC1` reads 8.99%; that for `Cc1ccc([C@@H]2CN(Cc3ccccc3)C[C@H]2S(=O)(=O)F)cc1` (racemic), 5.8%; that for `C=CC(=O)N1CC(NC(C)=O)C1`, 9.47%.
On to `C=CC(=O)N1CC[C@@H](N2CCOCC2)[C@H]1C`, for which the Inhibition % is listed as 5.26%.
On to `C=CC(=O)Nc1ccc(N2CCCC2=O)cc1`, for which the Inhibition % is 11.3%.
The result for `C=CC(=O)N1CCOCC1c1ccccc1` (stereo not shown) reads 0.671%; that for `N#CNC(=O)c1ccccc1`, 8.33%.
Under `O=C(CCl)N1CCN(c2ccccc2[N+](=O)[O-])CC1` stands 80.7%.
Regarding `Cc1cccc(NC(=O)CCl)c1C`, the Inhibition % came to 16.2%.
In the case of `COc1cccc(CN(C)C(=O)CCl)c1OC`, the Inhibition % came out at 74.5%.
The result for `CC1CC(N2CCCC2c2cccc(N(C)C)c2)C(=O)O1` (stereo not shown) reads 2.45%.
Under `Cc1cccc(B2OC(C)(C)C(C)(C)O2)c1C#N` stands 25.3%.
Under `C=CC(=O)NC1CCCc2cnn(C(C)C)c21` (stereo not shown) stands 12.6%; under `C=CC(=O)NCc1cc(C)no1`, 5.45%; under `C=CC(=O)N(C)C1CCCc2cccnc21` (stereo not shown), 7.75%.
As for `N#Cc1nccn1CC#Cc1ccc(F)cc1`, the Inhibition % amounted to 5.26%.
Under `O=C(CCl)NCc1ccc(C(=O)N2CCOCC2)cc1` stands 19.5%.
For `O=C(CCl)N(Cc1ccsc1)C1CC1`, the Inhibition % was determined as 14.9%.
Under `CN(CC12CC3CC(CC(C3)C1)C2)C(=O)CCl` stands 9.71%; under `Cn1cc(C=C(C#N)c2ccc3ccccc3n2)cn1`, 4.42%.
Under `CNC(=O)C(C#N)=C1SC(C)C(=O)N1c1ccc(C)cc1` (stereo not shown) stands 7.7%; under `Cc1ccccc1C1=NC(=Cc2cnn(C)c2)C(=O)O1`, 12.4%; under `C=CC(=O)Nc1cccc(-c2cn3c(n2)CCCC3)c1`, 14.3%.
The result for `O=C(CCl)Nc1ccc2c(c1)OC(F)(F)O2` reads 37.9%; that for `C=CC(=O)N(C)Cc1cn2c(n1)CCCC2.O=C(O)C(F)(F)F`, 2.8%.
`C=CC(=O)NCC1CCOC1c1c(C)nn(C)c1C` (stereo not shown): the Inhibition % is recorded as 4.65%.
For the molecule `COCc1cc(C#N)no1`, the Inhibition % was found to be 3.95%.
Regarding `C=CC(=O)NCC1CCC2(CCCCC2)O1` (stereo not shown), the Inhibition % came to 6.23%.
Under `N#Cc1nc(N2CCOCC2)ccc1Cl` stands 8.71%; under `Cc1cccc(CN2CCN(C(=O)CCl)CC2)c1.Cl`, 5.99%.
The result for `C=CC(=O)N1CC2CC1(C(N)=O)C2` reads 1.3%; that for `Cc1ccc(CN(C)C(=O)CCl)c(C)c1`, 65.7%; that for `O=C1OCCC1N1CCN(c2ccccc2F)CC1` (stereo not shown), 5.08%.
Under `CC1CN(C(=O)C=Cc2ccnn2C)CCO1` (stereo not shown) stands 0.988%.
With `C=CC(=O)N1CCCC1Cc1cccc(OC)c1` (stereo not shown), the Inhibition % is 6.77%.
The result for `C=CC(=O)Nc1cc(O)nc2c1CCC2` reads 7.33%.
The result for `CN(C)C=CC(=O)C1CCCCC1` reads 5.4%.
The result for `O=C(Cc1ccc(S(=O)(=O)F)cc1)Nc1ccccc1Cl` reads 12.8%; that for `Cc1nc(C=CC(=O)N2CCCC(C)C2CN)cs1` (stereo not shown), 4.49%; that for `CCc1nc(C#N)c(NCc2ccncc2)o1`, 9.41%.
In the case of `Cn1c(=O)oc2cc(C(=O)CCl)ccc21`, the Inhibition % is listed as 0.517%.
The result for `C=CC(=O)N1CCNC(=O)C1c1ccccc1Cl` (stereo not shown) reads 8.11%; that for `COc1ccc(O)c(C=O)c1`, 19.6%; that for `N#Cc1ccc(N2CCOC(c3cccs3)C2)cn1` (stereo not shown), 4.98%.
The result for `C=CC(=O)NC1CC2CCC1(C)C2(C)C` (stereo not shown) reads 12.8%.
Under `C=CC(=O)Nc1noc2ccccc12` stands 6.75%.
With `O=C1CCC(=O)N1CCC(=O)N1CCCc2ccccc21`, the Inhibition % was determined as 6.54%.
For `NS(=O)(=O)C=Cc1ccc(F)cc1`, the Inhibition % came to 7.7%.
The result for `O=C1CCS(=O)(=O)O1` reads 5.42%; that for `Cc1cc(C)c(NC(=O)CCl)c(Cl)c1`, -0.269%.
Under `Cc1nnc(CCCCl)o1` stands 5.68%; under `CCc1cccc2c(C=C(C#N)C(N)=O)c[nH]c12`, 8.29%; under `O=C(NNS(=O)(=O)c1ccc(S(=O)(=O)F)cc1)C1CCC1`, 10.2%.
The result for `O=S(=O)(F)CC1CCOCC1` reads 10.5%; that for `Cc1nc(C=CC(=O)N2CCCC2c2ccccc2)cs1` (stereo not shown), 18.9%.
On to `CCCn1c(C)nnc1CN(C#N)c1cc(C)ccc1F`, for which the Inhibition % is 20.1%.
Take `C=CC(=O)NCCC1CCOC1` (stereo not shown): the Inhibition % was 4.58%.
Under `CC(C)(C)OC(=O)N1CCC(CB2OC(C)(C)C(C)(C)O2)CC1` stands -1.21%; under `C=CC(=O)N1CCCN(C=O)CC1`, 15.7%.
Under `CC(C)(C)OC(=O)Nc1ccc(B2OC(C)(C)C(C)(C)O2)cn1` stands 5.39%; under `C=CC(=O)N1C[C@@H]2C[C@H]1CS2`, 4.18%; under `CCC(NC(=O)CCl)c1ccc(Br)cc1` (stereo not shown), 5.16%.
The result for `Cc1cccc(NC(=O)c2ccccc2NC(=O)CCl)c1` reads 1.55%; that for `O=S(=O)(C=Cc1ccccc1)N1C[C@@H](O)[C@@H](O)C1`, 9.02%; that for `C=CC(=O)NC1CCN(C(C)=O)CC1CC` (stereo not shown), 3.91%.
Turning to `CCc1ccccc1S(=O)(=O)N[C@H]1CCOC1=O`, the Inhibition % was determined as 5.65%.

Values taken from paper PMC9574860, “Chemical Toolkit for PARK7: Potent, Selective, and High-Throughput” (Journal of Medicinal Chemistry, 2022).
